# Data from the supplement of paper PMC12217912.
# This is one part of the list. Sequences were assembled here from the parent chain. Inactive controls read about 0.05.
# B1: TEV protease; numbered along this chain (parent)
# chain: MGESLFKGPRDYNPISSSICHLTNESDGHTTSLYGIGFGPFIITNKHLFRRNNGTLVVQSLHGVFKVKDTTTLQQHLVDGRDMIIIRMPKDFPPFPQKLKFREPQREERICLVTTNFQTKSMSSMVSDTSCTFPSGDGIFWKHWIQTKDGQCGSPLVSTRDGFIVGIHSASNFTNTNNYFTSVPKNFMELLTNQEAQQWVSGWRLNADSVLWGGHKVFMVKPEEPFQPVKEATQL
# Variants of: B1
# Test: raw area under fraction-flipped curve 0-4 h after induction (AUC4h, not background-subtracted), DNA-recorder readout of cleavage of the substrate (dimensionless); higher = more cleavage of the substrate by the protease variant
# Details: temperature: 34 °C; time window: 0-4 h after rhamnose induction
# Protocol: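 In vivo DNA recorder in E. coli TOP10(DE3) ΔrhaA at 34 °C. Each TEVp single-site mutant (parent TEVp 0) is paired with a single-site variant of the 7-mer TEVs (canonical ENLYFQ|S). The substrate sits between flexible linkers in a Bxb1-sfGFP-TEVs-SsrA fusion, so cleavage stabilises Bxb1 and speeds flipping of a recombination array, read by NGS. The value is the raw area under the fraction-flipped curve over 0-4 h after rhamnose induction (AUC4h), with ≥20 reads per time point. It is not background-subtracted; inactive controls average about 0.047.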
# 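Note: Bxb1 expression induced with 0.2% (w/v) L-rhamnose at OD600 near 0.5, cultures sampled hourly, flipped fraction per protease–substrate barcode pair counted by paired-end Illumina sequencing.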
Variant,area with substrate ENLYAQS,area with substrate ENLYCQS,area with substrate ENLYDQS,area with substrate ENLYEQS,area with substrate ENLYGQS,area with substrate ENLYHQS,area with substrate ENLYIQS,area with substrate ENLYKQS,area with substrate ENLYMQS,area with substrate ENLYNQS,area with substrate ENLYPQS,area with substrate ENLYRQS,area with substrate ENLYSQS,area with substrate ENLYTQS,area with substrate ENLYVQS,area with substrate ENLYWQS,area with substrate ENLYYQS,area with substrate ENLYLQS,area with substrate ENLYQQS
I43P,0.0516,0.054,0.0517,0.0441,0.0533,0.037,0.0368,0.0141,0.0462,0.0438,0.0771,0.0557,0.0512,0.0479,0.0516,0.038,0.0469,–,–
K142M,0.068,0.0688,0.0367,0.0717,0.06,–,0.104,0.0233,–,0.0673,0.0726,–,0.0626,0.0924,0.105,0.0859,–,0.0856,0.0476
I15Y,0.0501,–,0.0503,0.0663,0.0653,0.0834,–,0.101,0.0769,0.0641,0.0712,0.0568,0.0647,–,0.112,0.0664,0.0666,–,0.0596
D82F,0.0593,–,0.053,0.0524,0.0655,0.0723,0.0574,0.0579,0.0503,0.0579,0.0575,–,–,–,0.0612,–,0.0658,0.0599,0.0154
N186W,0.0673,0.055,0.063,0.05,0.067,0.047,0.119,0.0115,0.0964,0.0618,0.0718,0.0523,–,0.0768,0.105,0.0618,–,–,–
N186E,0.0677,–,–,0.0722,0.0583,0.0899,0.15,–,–,0.0711,–,0.0415,0.0752,–,0.112,–,–,–,0.0577
D27T,0.0801,0.103,0.0644,0.071,0.0546,0.0593,0.0864,0.0704,0.0707,0.0719,0.0455,0.0557,–,–,0.0871,0.0694,–,–,0.0439
S130G,0.0653,–,0.0567,0.0756,–,0.0612,–,0.0722,0.0966,0.0628,0.0897,–,–,–,0.134,0.0819,0.0694,–,–
E3S,0.0809,–,–,0.0576,–,0.0712,0.121,0.053,–,–,–,0.07,0.0805,0.0815,–,0.0648,–,–,–
S182A,0.0835,–,–,0.083,0.0342,0.0625,–,0.0671,–,0.0962,0.0989,–,–,–,–,–,0.0805,–,0.0985
H143L,0.0554,–,0.0579,–,0.0507,0.0624,–,0.049,0.0587,0.0579,0.0636,0.0136,–,–,0.0754,0.0629,0.0559,–,0.0574
L156V,0.0465,0.0725,0.0624,0.0672,–,0.0825,0.0904,0.0646,0.0814,0.0681,0.0798,–,0.0685,–,0.117,0.0977,0.0431,0.0607,0.0772
L156D,0.0451,0.048,0.0549,0.0565,–,–,0.0489,–,0.0608,0.0547,0.0667,0.058,0.0551,0.061,–,0.0605,0.0457,–,0.0478
Q118S,0.0755,0.0939,0.0484,0.0613,–,0.0501,0.147,0.0996,0.0855,0.0768,0.0894,0.0489,0.074,–,–,0.0748,0.083,–,0.0639
K148I,0.0718,–,0.0737,–,0.0661,0.0575,0.112,0.0657,0.0778,–,0.0605,–,0.0689,0.0479,0.0874,0.109,0.0616,0.084,0.0649
D11M,0.0651,–,0.062,0.0572,0.0619,0.06,0.0679,0.0867,0.0422,0.0516,0.0651,0.0637,0.0633,0.0519,0.0858,0.07,0.0689,–,0.0675
D69C,0.0697,–,0.07,0.0456,0.102,0.0601,0.103,0.0601,0.0659,0.0761,0.0694,0.0291,–,–,0.105,0.0943,0.0261,0.0799,–
K120Q,0.0701,0.0869,0.0378,0.0651,–,0.0782,–,0.0664,–,0.0572,–,0.0518,0.0919,0.0862,–,0.0826,–,0.0927,0.0519
F218L,0.0775,–,–,0.0598,0.056,0.0755,–,0.112,0.0745,0.0616,0.0603,0.0455,0.0576,–,0.126,0.0677,0.0616,0.0502,0.0641
T44C,0.0535,0.0732,0.069,0.0552,0.0776,0.0608,0.0818,–,0.0799,0.0621,0.0637,0.0619,0.0849,0.0603,0.101,–,0.048,0.0888,0.0579
P9W,0.0682,0.0996,0.0634,0.0697,–,0.0678,0.114,0.0599,0.0812,0.0692,0.0462,0.0619,0.0823,0.0325,0.118,0.0764,0.0692,0.113,0.0784
P9V,0.0817,–,0.0598,0.074,0.0275,0.0742,0.12,–,0.104,0.0559,0.099,0.0606,–,–,0.109,0.0712,–,–,–
K230W,0.078,0.0721,0.0605,0.0537,0.0628,0.0661,0.13,–,0.0887,0.0693,0.0716,–,0.0436,0.072,–,0.0721,0.0463,–,0.0658
S17M,0.0854,–,0.0887,0.0696,0.0616,0.0766,0.138,0.0619,0.0876,0.0622,0.0625,0.0624,0.073,0.0993,0.116,–,0.0848,0.104,0.058
